# Test results from article PMC4336329 (PLoS ONE, 2015).
# Screen size: about 310,000 compounds; about 2,200 (0.71%) showed an effect of 50% or more. The effect is printed as a negative number. The list shows a part of the results.
# Target: human ether-à-go-go-related gene (hERG) potassium channel (human, UniProt Q12809)
# Experiment: primary screen, population patch clamp on CHO cells stably expressing hERG
# Sequence of human ether-à-go-go-related gene (hERG) potassium channel (Q12809 whole entry, looked up): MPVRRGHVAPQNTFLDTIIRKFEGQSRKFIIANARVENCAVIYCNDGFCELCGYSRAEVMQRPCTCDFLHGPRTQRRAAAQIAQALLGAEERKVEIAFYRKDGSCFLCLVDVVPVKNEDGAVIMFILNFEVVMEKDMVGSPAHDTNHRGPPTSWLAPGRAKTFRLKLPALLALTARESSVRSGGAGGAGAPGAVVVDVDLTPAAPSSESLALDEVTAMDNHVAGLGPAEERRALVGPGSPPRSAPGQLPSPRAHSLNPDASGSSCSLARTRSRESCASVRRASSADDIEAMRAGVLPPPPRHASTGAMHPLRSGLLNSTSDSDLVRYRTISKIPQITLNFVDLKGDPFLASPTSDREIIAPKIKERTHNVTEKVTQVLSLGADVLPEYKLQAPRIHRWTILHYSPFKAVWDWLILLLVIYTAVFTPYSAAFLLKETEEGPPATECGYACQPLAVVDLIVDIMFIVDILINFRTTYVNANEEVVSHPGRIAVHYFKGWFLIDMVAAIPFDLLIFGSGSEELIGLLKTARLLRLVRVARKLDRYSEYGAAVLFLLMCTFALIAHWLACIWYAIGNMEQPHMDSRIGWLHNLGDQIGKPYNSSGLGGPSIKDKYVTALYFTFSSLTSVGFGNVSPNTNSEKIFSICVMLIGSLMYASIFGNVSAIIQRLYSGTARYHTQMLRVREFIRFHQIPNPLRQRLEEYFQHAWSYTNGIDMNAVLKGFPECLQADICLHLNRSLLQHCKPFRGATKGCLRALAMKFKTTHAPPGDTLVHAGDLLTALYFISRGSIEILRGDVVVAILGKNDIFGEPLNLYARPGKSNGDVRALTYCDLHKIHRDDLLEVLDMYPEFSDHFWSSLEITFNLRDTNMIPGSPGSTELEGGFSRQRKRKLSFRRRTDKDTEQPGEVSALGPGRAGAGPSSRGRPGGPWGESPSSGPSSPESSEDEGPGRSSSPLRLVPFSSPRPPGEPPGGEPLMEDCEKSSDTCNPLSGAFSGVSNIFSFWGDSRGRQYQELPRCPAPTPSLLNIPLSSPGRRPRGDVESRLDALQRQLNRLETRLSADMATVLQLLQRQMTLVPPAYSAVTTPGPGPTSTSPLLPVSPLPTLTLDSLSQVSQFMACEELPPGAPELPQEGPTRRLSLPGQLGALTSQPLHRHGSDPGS
row,SMILES,"hERG current change (%, negative = inhibition) at 1uM [%]"
1,O=C(COC(=O)c1cc(Cl)ccc1Cl)NCCN1C(=O)CSC1=O,7.4
2,Cc1ccc2c(CC(=O)NCc3ccco3)coc2c1C,4.61
3,CC(=O)Nc1c(O)nc(SCC(=O)Nc2c(C)cccc2C)[nH]c1=O,8.27
4,COc1cc(S(=O)(=O)NCc2ccc3c(c2)OCO3)ccc1F,8.7
5,CSc1nnc(C)c(=O)n1COC(=O)COc1ccc(Cl)cc1Cl,0.251
6,COc1ccc(C2C=C(C34CC5CC(CC(C5)C3)C4)NC(=S)N2)cc1OC (centres unmarked),-5.65
7,Cc1cc(C)c(S(=O)(=O)NCc2cn3ccccc3n2)c(C)c1,11.2
8,CCOc1ccc(Cl)cc1S(=O)(=O)NCc1cccnc1,-7.65
9,Clc1ccc(-c2cn3c(n2)-c2ccccc2C3)cc1Cl,14.5
10,O=C(N/N=C1\CC(c2ccccc2)Oc2ccccc21)c1ccc(O)cc1 (centres unmarked),20.6
11,Cc1ccc(NC(=O)C(=O)c2c(-c3ccccc3)cc3ccccn23)cc1S(=O)(=O)N1CCOCC1,-9.49
12,COC(=O)C(C)Sc1ccc2nnc(-c3ccc(F)cc3)n2n1 (centres unmarked),-6.46
13,Cc1ccc(C(=O)Nc2cc(=O)n(C)c(=O)n2C)o1,15.6
14,COc1ccc(-n2c(-c3ccc(Cl)cc3)c[n+]3c2CCc2ccccc2-3)cc1.[Br-],-70.3
15,Cc1cc(F)c(F)c(C(=O)NC2CC2)c1Cl,3.06
16,O=C1C=C(NC(=O)Nc2ccc(Cl)c(Cl)c2)CCC1,16.9
17,Cc1nc(Sc2cccn2C)c(C(F)(F)F)c(=O)[nH]1,-1.13
18,Cc1nn(CC(=O)NCCc2ccc(Cl)cc2)c(=O)c2cccn12,-5.96
19,COc1ccccc1-c1c(NC(=O)C(C)C)n(C)c2ccccc2c1=O,10.3

row,SMILES,"hERG current change (%, negative = inhibition) at 1uM [%]"
1,COc1ccc(CC(=O)c2cc(OC)c(OC)cc2CC(=O)O)cc1OC,8.05
2,C[C@@H]1[C@H](O)C[C@@]23COC(=O)C2=CCC[C@@H]3[C@@]1(C)CC/C(=C/CO)CO,13.6
3,CCCCn1c(SCC(=O)c2cc(OC)ccc2OC)nc2cc(S(N)(=O)=O)ccc21,4.9
4,CN1C(=O)S/C(=C/c2cccn2-c2cccc(C(=O)O)c2)C1=O,9.99
5,CCCCC(CC)C(=O)NCc1ccc(F)cc1 (centres unmarked),11.4
6,O=C(N/N=C/c1ccc(O)c([N+](=O)[O-])c1)c1ccncc1,11.5
7,COc1cc2[nH]c(=O)n(CCCCCC(=O)NC3CCCC3)c(=O)c2cc1OC,13.7
8,Cc1ccc(C)c(N2CN(Cc3cccnc3)CNC2=S)c1,19.4
9,Cc1ccc(-n2c(C)nn(CC3CC3)c2=O)cc1,11.9
10,COc1ccc(N2CCCC2=N)c(OC)c1.Cl,13.9
11,O=C(CSc1nnc(COc2ccccc2)n1Cc1ccco1)c1ccc(F)cc1,-11.5
12,Cn1nnnc1SCC(=O)N1CCN(Cc2ccccc2)CC1,7.97
13,CC(=O)Oc1c(C(=O)c2nnc(C)o2)c(=O)n(C)c2ccccc12,4.51
14,CN(C)CCN1C(=O)C(O)=C(C(=O)c2cc3ccccc3o2)C1c1ccccn1 (centres unmarked),-3.13
15,CS(=O)(=O)NNC(=O)c1cc2cc3ccccc3nc2s1,14.1
16,N#Cc1c(/N=C/N2CCCC2)oc(-c2ccccc2)c1-c1ccccc1,5.88
17,CCOc1ccc(C(=O)CCC(=O)O)cc1,-2.4
18,CC(NCC(O)COC1CCC(C(C)(C)C)CC1)c1ccccc1.Cl (centres unmarked),7.27
19,Cc1c(C(=O)Nc2ccncc2)oc2c1C(=O)CC(C)(C)C2,10.5

row,SMILES,"hERG current change (%, negative = inhibition) at 1uM [%]"
1,O=C(c1ccccc1)c1c[nH]c(C(=O)NNc2cccc(Cl)n2)c1,19.4
2,CCOc1ccc(S(=O)(=O)N2CCC(C(=O)NCc3ccccn3)CC2)cc1Cl,14.6
3,C=CCN(CC=C)c1cnn(-c2nc3ccccc3[nH]2)c(=O)c1Cl,-22.2
4,COc1cccc(NC(=O)CN(C)C(=O)c2cccc(S(=O)(=O)N3CCN(c4ccc(F)cc4)CC3)c2)c1,-1.26
5,O=C1OC(Nc2ccc(Br)cc2F)c2ccccc21 (centres unmarked),6.54
6,O=C(O)COc1ccccc1/C=N/n1c(C2CCCCC2)n[nH]c1=S,12
7,CC(=O)NNC(=S)NC(=O)C(c1ccccc1)c1ccccc1,8.75
8,CCN(CC)CCCN=Cc1c(O)n(CCc2ccc(F)cc2)c(=O)[nH]c1=O,-40.7
9,O=C(O)CC1(CC(=O)Nc2ccc(Br)cc2)CCCCC1,6.02
10,Cc1cc2ncn(CCC(=O)NC3CCCC3)c2cc1C,11.1
11,CSc1ccc(/C=C(\C(=O)O)c2ccc(S(=O)(=O)N3CCCCC3)s2)cc1,-40.7
12,Cc1nc(=O)c(-c2ccccc2)c(C)n1-c1ccccc1Cl,5.55
13,O=C(O)c1cc(NC(=O)c2cccc(N3C(=O)c4ccccc4C3=O)c2)cc(C(=O)O)c1,-3.72
14,CC(C)C(NC(=O)C(c1ccccc1)c1ccccc1)c1nc2ccccc2[nH]1 (centres unmarked),12.3
15,Cc1ccc(C)c(NC(=O)CCCCCN2C(=O)[C@@H]3Cc4ccccc4CN3C2=O)c1,-9.94
16,CCn1nc(C)c(CNC(=O)c2cc(COc3cncc(Cl)c3)on2)c1C,12.2
17,O=C1C(=O)N(CCCn2ccnc2)C(c2cccc(Br)c2)/C1=C(\O)c1ccc2c(c1)OCCO2 (centres unmarked),-0.598
18,COc1ccc2[nH]c(=O)c(CN(C(=O)c3cccnc3)c3cccc(C)c3)cc2c1,13.4
